{
  "source": "PubChem BioAssay AID1865",
  "about": "(National Center for Advancing Translational Sciences (NCATS), 2009)",
  "note": "Screen size: about 280,000 compounds; about 540 (0.19%) were called active. This list was built around the results that the source calls inconclusive (neither active nor inactive); the mix of calls is not that of the screen. Calls come from the whole dose curve; as a rule, active = well fitted activation curve with a large enough effect; inconclusive = small, poorly fitted or top-dose-only effect; inactive = flat fitted curve, though single readings scatter. Where the call is inconclusive, the potency comes from a doubtful curve fit. Potency is the fitted concentration of half-maximal effect; tags give direction and shape of the fitted curve.",
  "data": [
    {"test": "Quantitative High-Throughput Screen for Regulators of Epigenetic Control; note: nearly all actives have a fitted effect of over 60% in size", "conditions": "murine LDR cells, GFP reporter derepression, 30 h; series mostly up to 53.9 µM", "how_it_was_run": "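Readout is the number of GFP-expressing murine LDR cells, counted by cytometry following washing. Cells were treated with compound for 30 h at 37 C; the stably integrated CMV-GFP locus is normally silent.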", "values": [
      {"smiles": "CC(C)c1ccc(Nc2c(-c3ccc(N(C)C)cc3)nc3cnccn23)cc1", "Potency": "inconclusive: 35.5 µM [activator, single point]"},
      {"smiles": "COc1ccc(CN2CCNC(=O)C2CC(=O)N(Cc2nccn2C)C(C)C)c(OC)c1", "note": "(configuration not stated)", "Potency": "inconclusive: 1.12 µM [activator, full curve]"},
      {"smiles": "Oc1[nH]c2ccccc2c1N=Nc1ccc(F)cc1", "Potency": "inconclusive: 35.5 µM [activator, single point]"},
      {"smiles": "Cc1ccc(NC(=O)C(NC2CCCc3ccccc32)c2ccccc2)cc1Cl", "note": "(configuration not stated)", "Potency": "inactive"},
      {"smiles": "O=C(Cc1cccs1)Nc1ccc(-c2nnc(-c3ccco3)o2)cc1", "Potency": "inconclusive: 31.6 µM [activator, single point]"},
      {"smiles": "COc1ccc(C(=O)Cn2c(C(=O)/C=C/c3ccccc3)nc3ccccc32)cc1", "Potency": "inconclusive: 5.62 µM [activator, single point]"},
      {"smiles": "COc1ccc(CNC(=O)c2ccc(Cn3nc(C)c([N+](=O)[O-])c3C)o2)cc1", "Potency": "active: 4.47 µM"},
      {"smiles": "O=C(Nc1ccc2c(c1)nc1n2CCN(Cc2ccccc2)C1)NC1CCCCC1", "Potency": "inactive"},
      {"smiles": "Cc1nc2ccccc2n1CC(=O)NC(C)C1CC2CCC1C2", "note": "(configuration not stated)", "Potency": "inactive"},
      {"smiles": "CCCCC(=O)NS(=O)(=O)c1ccc(N=NN(CC)CC)cc1", "Potency": "inconclusive: 35.5 µM [activator, single point]"},
      {"smiles": "O=C1S/C(=C\\c2ccc(N3CCOCC3)o2)C(=O)N1Cc1ccc(F)cc1", "Potency": "active: 3.55 µM"},
      {"smiles": "O=C(CCCn1c(=O)c2cccn2c2cccnc21)NCc1ccccc1Br", "Potency": "inconclusive: 12.6 µM [activator, partial curve]"},
      {"smiles": "Cc1ccc(S(=O)(=O)Nc2cc3c(cc2NCc2ccccc2)n(C)c(=O)n3C)cc1", "Potency": "inactive"},
      {"smiles": "CCN1c2ccccc2-c2nc(SCC(=O)NCc3ccc(Cl)cc3)ncc2S1(=O)=O", "Potency": "inconclusive: 35.5 µM [activator, single point]"},
      {"smiles": "COc1ccc(N=c2oc3cc(O)ccc3cc2C(=O)NCC2CCCO2)c(OC)c1", "note": "(configuration not stated)", "Potency": "inconclusive: 5.62 µM [activator, single point]"},
      {"smiles": "Cc1cccc(NC(=O)Cn2nc3c4ccccc4n(Cc4ccccc4)cc-3c2=O)c1", "Potency": "inconclusive: 35.5 µM [activator, single point]"},
      {"smiles": "CCCOc1ccc(CNC(=O)c2ccc(C)c(-n3c(C)nc4cccnc43)c2)cc1", "Potency": "inactive"},
      {"smiles": "COC(=O)[C@@]1(Cc2ccccc2)[C@H]2c3cc(C(=O)N4CCCC4)n(Cc4ccc(C)o4)c3C[C@H]2CN1C(=O)c1ccccc1", "Potency": "inconclusive: 31.6 µM [activator, single point]"},
      {"smiles": "O=C(Cc1cccc2ccccc12)Nc1ccc2oc(-c3ccccc3)nc2c1", "Potency": "inconclusive: 31.6 µM [activator, single point]"},
      {"smiles": "COc1ccccc1OC1OC2COC(c3ccco3)OC2C(O)C1NC(C)=O", "note": "(configuration not stated)", "Potency": "inactive"},
      {"smiles": "CCOc1ccc(NC(=O)C2CCCN(S(=O)(=O)c3c(C)noc3/C=C/N(C)C)C2)cc1", "note": "(configuration not stated)", "Potency": "inactive"},
      {"smiles": "CCOc1ccccc1Nc1nc(-c2sc(NC(=O)c3cccc(Cl)c3)nc2C)cs1", "Potency": "inconclusive: 10 µM [activator, partial curve]"},
      {"smiles": "N#Cc1ccc(-c2ccco2)nc1SCC(=O)c1ccc(Cl)cc1", "Potency": "inconclusive: 35.5 µM [activator, single point]"},
      {"smiles": "COc1ccc(CNc2ccnc(-c3ccccc3C(F)(F)F)n2)c(OC)c1", "Potency": "inactive"},
      {"smiles": "CC(C)CC(=O)N1CCN(Cc2ccccc2[N+](=O)[O-])CC1", "Potency": "inactive"},
      {"smiles": "Cc1ccc(-c2nnc(NCc3nc4ccccc4[nH]3)c3ccccc23)cc1S(=O)(=O)N1CCCCC1", "Potency": "inconclusive: 35.5 µM [activator, single point]"},
      {"smiles": "CN1CCc2c(sc(NC(=O)c3ccc(S(=O)(=O)N4CCc5ccccc54)cc3)c2C(N)=O)C1", "Potency": "inconclusive: 12.6 µM [activator, partial curve]"},
      {"smiles": "CCN(CC)c1c([N+](=O)[O-])c(=O)sc2ccccc12", "Potency": "inconclusive: 35.5 µM [activator, single point]"},
      {"smiles": "Cc1csc(NC(=S)Nc2cccc(Cl)c2)n1", "Potency": "inconclusive: 31.6 µM [activator, single point]"},
      {"smiles": "COCCNC(=O)Cn1c(=O)n(CCCCCC(=O)NCc2ccccc2Cl)c(=O)c2sccc21", "Potency": "inactive"},
      {"smiles": "Cc1ccccc1NCC(=O)N/N=C/c1c(C)c(C(=O)c2ccc(Cl)cc2)n2ccccc12", "Potency": "inconclusive: 5.62 µM [activator, single point]"},
      {"smiles": "COc1ccccc1CNc1cc(C)nc2nc(-c3ccc(C)cc3)nn12", "Potency": "inconclusive: 31.6 µM [activator, single point]"},
      {"smiles": "COCCNC(=S)N/N=C(\\C)c1ccc2cc(OC)ccc2c1", "Potency": "active: 7.94 µM"},
      {"smiles": "c1ccc(-c2n[nH]c(-c3ccccn3)n2)cc1", "Potency": "active: 22.4 µM"},
      {"smiles": "Cc1ccc(NC(=O)c2c(C)nc3sc(C(=O)Nc4ccc(F)cc4)c(N)c3c2-c2ccc(C)o2)c(C)c1", "Potency": "active: 22.4 µM"},
      {"smiles": "CCOc1ccc(OCC(=O)Nc2nnc3n2CCS3)cc1", "Potency": "inactive"},
      {"smiles": "CCOc1nc(NC(=O)NS(=O)(=O)Oc2ccccc2)nc(-c2ccccc2)n1", "Potency": "inconclusive: 3.55 µM [activator, single point]"},
      {"smiles": "CN(C)CCCN1C(=O)c2cccc3c(Br)ccc(c23)C1=O", "Potency": "inconclusive: 35.5 µM [activator, single point]"},
      {"smiles": "COC(=O)C1=C(C)N(Cc2ccco2)C(=O)/C1=C\\c1ccc([N+](=O)[O-])cc1", "Potency": "inconclusive: 35.5 µM [activator, single point]"},
      {"smiles": "C=C(C)C(=O)/C=C/c1ccc(Br)cc1", "Potency": "inconclusive: 31.6 µM [activator, single point]"},
      {"smiles": "COc1c(O)c(O)cc2c1oc1c3ccccc3oc(=O)c21", "Potency": "inconclusive: 35.5 µM [activator, single point]"},
      {"smiles": "N#Cc1c2c(c(Nc3ccccc3)n3c1nc1ccccc13)CCC2", "Potency": "inconclusive: 17.8 µM [activator, single point]"},
      {"smiles": "O=[N+]([O-])c1ccc(CSc2nnc3ccccn23)cc1", "Potency": "inconclusive: 15.8 µM [activator, single point]"},
      {"smiles": "Nc1c(C(=O)Nc2ccccc2F)sc2nc(-c3ccco3)ccc12", "Potency": "inconclusive: 35.5 µM [activator, single point]"},
      {"smiles": "COC(=O)Cn1c(=NC(=O)c2nc3ccccc3s2)sc2cc(S(N)(=O)=O)ccc21", "Potency": "inconclusive: 25.1 µM [activator, single point]"},
      {"smiles": "O=S(=O)(c1ccc2c(c1)CCN2)N1CCCCCC1", "Potency": "inactive"},
      {"smiles": "CCC(C)OC(=O)/C(C#N)=C\\c1ccc(-c2cccc(C(F)(F)F)c2)o1", "note": "(configuration not stated)", "Potency": "inconclusive: 35.5 µM [activator, single point]"},
      {"smiles": "Cc1oc2cc(O)cc(C)c2c(=O)c1-c1cnn(-c2ccccc2)c1", "Potency": "inconclusive: 35.5 µM [activator, single point]"},
      {"smiles": "CCc1ccc(NCc2cc3cc(OC)c(OC)cc3n(CC(=O)Nc3cc(C)ccc3C)c2=O)cc1", "Potency": "inconclusive: 12.6 µM [activator, single point]"},
      {"smiles": "O=C(Cn1c(=O)n(-c2ccc(Cl)cc2)c(=O)c2oc3ccccc3c21)Nc1ccccc1", "Potency": "inconclusive: 35.5 µM [activator, single point]"},
      {"smiles": "CCOC(=O)C1CCN(S(=O)(=O)c2ccc(-c3nc4ccccc4s3)s2)CC1", "Potency": "inactive"},
      {"smiles": "C=C(C)Cn1cnc2cc(C)c(C)cc21", "Potency": "inactive"},
      {"smiles": "OCc1ccc(O)c2ncccc12", "Potency": "inconclusive: 31.6 µM [activator, single point]"},
      {"smiles": "O=C(NCc1ccncc1)c1c(F)c(F)c(F)c(F)c1F", "Potency": "inactive"},
      {"smiles": "COc1ccccc1NS(=O)(=O)c1cc([N+](=O)[O-])ccc1N/N=C/c1c(C)[nH]c2ccccc12", "Potency": "inconclusive: 6.31 µM [activator, partial curve]"},
      {"smiles": "COc1ccc2nc3sc(C(=O)NCCCN4CCc5ccccc5C4)cc3cc2c1", "Potency": "inconclusive: 31.6 µM [activator, single point]"},
      {"smiles": "O=C(COC(=O)c1ccccc1C(=O)c1ccc(Cl)cc1)NC(c1ccccc1)c1ccccc1", "Potency": "inconclusive: 3.98 µM [activator, single point]"},
      {"smiles": "COc1ccc(Cn2c(SCC(N)=O)nc3c(sc4ccccc43)c2=O)cc1", "Potency": "inconclusive: 22.4 µM [activator, single point]"},
      {"smiles": "Cc1ccc(C)c(S(=O)(=O)NC(C)C(=O)Nc2ccc(-c3nc4ccccc4s3)cc2)c1", "note": "(configuration not stated)", "Potency": "inconclusive: 15.8 µM [activator, single point]"},
      {"smiles": "Cc1ccc(Cl)cc1NC(=O)CN1C(=O)COc2ccc(S(=O)(=O)N3CCOCC3)cc21", "Potency": "inconclusive: 14.1 µM [activator, single point]"},
      {"smiles": "Cc1ccc(-n2c(=O)c3ccc(C(=O)NCc4ccccc4Cl)cc3n(CC(=O)Nc3cccc(F)c3)c2=O)cc1", "Potency": "inconclusive: 17.8 µM [activator, single point]"},
      {"smiles": "CC(C)C[C@@H](/C=C/S(C)(=O)=O)NC(=O)[C@H](CC(C)C)NC(=O)[C@H](CC(C)C)NC(=O)OCc1ccccc1", "Potency": "active: 6.31 µM"},
      {"smiles": "O=C(CSc1cn(CCNC(=O)c2c(F)cccc2F)c2ccccc12)Nc1ccc2c(c1)OCCO2", "Potency": "inconclusive: 3.55 µM [activator, single point]"},
      {"smiles": "CC(C)CC(=O)Nc1ccc(C(=O)OCc2cc(=O)n3nc(C(C)C)sc3n2)cc1", "Potency": "inactive"},
      {"smiles": "CC1=Nc2ccc3ccccc3c2C1(C)C", "Potency": "inconclusive: 35.5 µM [activator, single point]"},
      {"smiles": "S=C1SCN(Cc2ccccn2)CN1Cc1ccco1", "Potency": "inconclusive: 28.2 µM [activator, single point]"},
      {"smiles": "Cc1ccc(C)c(S(=O)(=O)C(C#N)c2nc3ccccc3nc2N2CCCC2)c1", "note": "(configuration not stated)", "Potency": "inconclusive: 35.5 µM [activator, single point]"}
    ]}
  ]
}
